About 2,200 (0.71%) of roughly 310,000 compounds showed an effect of 50% or more. Effects have a minus sign here. This is one part of the list.
Target: human ether-à-go-go-related gene (hERG) potassium channel (human, UniProt Q12809)
Assay: primary screen, population patch clamp on CHO cells stably expressing hERG

human ether-à-go-go-related gene (hERG) potassium channel, sequence (Q12809 whole entry, looked up): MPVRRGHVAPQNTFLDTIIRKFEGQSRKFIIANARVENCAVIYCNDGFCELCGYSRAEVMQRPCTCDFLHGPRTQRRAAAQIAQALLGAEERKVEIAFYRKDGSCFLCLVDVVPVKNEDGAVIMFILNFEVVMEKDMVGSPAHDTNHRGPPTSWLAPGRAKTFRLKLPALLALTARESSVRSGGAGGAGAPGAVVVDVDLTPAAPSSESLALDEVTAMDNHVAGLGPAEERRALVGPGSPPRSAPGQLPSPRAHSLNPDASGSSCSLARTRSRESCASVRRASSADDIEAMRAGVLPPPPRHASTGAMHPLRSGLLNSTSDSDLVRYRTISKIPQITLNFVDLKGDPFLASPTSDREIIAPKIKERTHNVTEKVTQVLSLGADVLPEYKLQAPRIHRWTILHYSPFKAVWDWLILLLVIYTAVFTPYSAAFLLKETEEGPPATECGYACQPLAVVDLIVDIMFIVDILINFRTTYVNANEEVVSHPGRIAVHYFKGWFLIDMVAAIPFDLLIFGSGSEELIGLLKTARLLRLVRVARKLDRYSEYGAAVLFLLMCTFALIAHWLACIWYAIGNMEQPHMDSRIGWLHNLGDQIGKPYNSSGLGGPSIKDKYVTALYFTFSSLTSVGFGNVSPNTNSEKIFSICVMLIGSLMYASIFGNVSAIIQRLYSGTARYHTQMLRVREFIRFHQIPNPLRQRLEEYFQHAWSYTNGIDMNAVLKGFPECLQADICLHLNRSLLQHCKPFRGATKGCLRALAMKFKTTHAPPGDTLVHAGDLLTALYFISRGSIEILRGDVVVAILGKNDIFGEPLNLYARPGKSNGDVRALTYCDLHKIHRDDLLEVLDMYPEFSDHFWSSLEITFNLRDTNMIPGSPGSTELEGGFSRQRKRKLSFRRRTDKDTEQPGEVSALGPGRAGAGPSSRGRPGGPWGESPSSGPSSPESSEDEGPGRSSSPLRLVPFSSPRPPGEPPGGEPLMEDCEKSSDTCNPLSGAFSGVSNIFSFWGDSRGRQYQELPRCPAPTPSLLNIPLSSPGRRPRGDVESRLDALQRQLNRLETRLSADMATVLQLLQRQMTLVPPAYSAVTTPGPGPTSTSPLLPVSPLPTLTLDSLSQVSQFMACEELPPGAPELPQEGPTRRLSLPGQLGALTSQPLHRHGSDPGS

In order of falling “hERG current change (%, negative = inhibition) at 1uM” value:
1. CC(CC(=O)Nc1nnc(CC(C)(C)C)s1)c1ccccc1 (centres unmarked)  23.5%
2. O=C(NC1CCCC1)C1CCCN(S(=O)(=O)c2cnc[nH]2)C1 (centres unmarked)  17.8%
3. CNC(=O)c1ccc(OC2CSC2)cc1  16.8%
4. CC(C)=NNC(=O)C1=NNC(=O)C1  16.1%
5. Cc1ccc(N(CC(=O)NC(C)c2ccccc2)S(=O)(=O)c2c(C)noc2C)cc1 (centres unmarked)  16%
6. CCC(C)n1c(SCC(=O)Nc2ccc3[nH]c(=O)[nH]c3c2)nc2ccccc2c1=O (centres unmarked)  15.7%
7. COc1ccc(CC(=O)NCC2(c3ccc(OC)c(OC)c3)CCOCC2)cc1  15.5%
8. CCN(c1ccccc1)S(=O)(=O)c1ccc(C(=O)N(CCCN(C)C)c2nc3cc4c(cc3s2)OCO4)cc1.Cl  15.3%
9. CC1Cc2cc(S(=O)(=O)N3CCN(C)CC3)ccc2N1C(=O)C1CC1 (centres unmarked)  14.9%
10. O=C(CSc1ccc(Br)cc1)N1CCOCC1  14.8%
11. C/C(=N/NC(=O)C1CCCCC1)c1ccc([N+](=O)[O-])cc1  14.8%
12. Cn1cc(C(=O)NS(=O)(=O)Nc2ccc(Br)cc2)c2ccccc21  14.8%
13. CC1CN(C(=S)NC(=O)c2ccc(Cl)cc2)CC(C)O1 (centres unmarked)  14.5%
14. COc1ccc2c(-c3ccccc3)cc(N3CCOCC3)nc2c1.O=C(O)C(=O)O  14.1%
15. CC(C)(CNC(=O)C1CCCN1C(=O)c1cccs1)N1CCOCC1 (centres unmarked)  13.1%
16. Cc1ccc(CCNC(=O)CNC(=O)c2cccs2)cc1  11.5%
17. COC(=O)c1sc(NC(=S)NC(=O)c2cc(OC)c(OC)c(OC)c2)nc1C  10.9%
18. C=C(C)Cn1c(COc2ccccc2)nnc1SCC(=O)O  10.9%
19. COC1Cc2ccccc2N(C(N)=O)c2ccccc21 (centres unmarked)  10.6%
20. COc1ccc2c(c1)-c1c(ssc1=S)C(C)(C)N2C(=O)CSC1=NCCS1  10.6%
21. Clc1ccc2c(c1)C=Nc1c(NCc3ccccc3)ncnc1O2  9.68%
22. CCC(=O)N1CCc2cc(S(=O)(=O)Nc3ccc4c(c3)OCCO4)ccc21  9.68%
23. COC(=O)c1c(-c2ccccc2)noc1-c1ccccc1  9.13%
24. O=C(Nc1nnc(S(=O)(=O)N2CCCC2)s1)c1ccccc1Br  8.81%
25. O=C(COc1cc(O)c2c(=O)cc(-c3ccccc3)oc2c1)c1cccc([N+](=O)[O-])c1  8.7%
26. Cc1c(NC(=O)COC(=O)Cc2ccc(Br)cc2)c(=O)n(-c2ccccc2)n1C  8.62%
27. COc1cccc(C(=O)N2CCN=C2SCc2cccnc2)c1OC  8.1%
28. CCOc1ncccc1C(=O)OCC(=O)Nc1cc(S(=O)(=O)N2CCOCC2)ccc1C  7.29%
29. CS(=O)(=O)N(Cc1cc2ccccc2[nH]c1=O)C1CCCCC1  7.26%
30. Cc1ccc(C(C)C)c(OCc2ccc(C(=O)N/N=C/c3ccc(O)cc3O)cc2)c1  7.03%
31. COc1cc(S(=O)(=O)N2CCCCCC2)ccc1-n1cnnn1  7.03%
32. O=C(C1CCN(Cc2nc(Cc3cccc(F)c3)no2)CC1)N1CCOCC1  6.83%
33. CC(OC(=O)Cn1cnc2c1c(=O)n(C)c(=O)n2C)C(=O)c1ccccc1 (centres unmarked)  6.77%
34. CCN(CC)Cc1c(CC(C)C)oc(C)c1C(=O)O.Cl  6.58%
35. COc1ccc(S(=O)(=O)N2CCOCC2)cc1NC(=O)c1ccc(-n2nc(C)cc2C)cc1  6.25%
36. Cc1ncc([N+](=O)[O-])n1CC(=O)Nc1ccccc1F  4.96%
37. CC(C)NC(=O)Cn1c(SCC(=O)NC2CCCC2)nc2ccccc21  4.46%
38. COc1ccc(C2C3=C(CC(C)(C)CC3=O)Nc3c2c(=O)[nH]c2nc(C)nn32)cc1 (centres unmarked)  4.21%
39. C=CCn1c(SCC(=O)Nc2c(C)n(C)n(-c3ccccc3)c2=O)nc2sc(C)c(-c3ccccc3)c2c1=O  3.6%
40. CC(C)C(=O)Nc1ccc(NC(=O)c2cc3ccccc3o2)cc1  2.11%
41. Cc1cccc(-n2cnc(C(=O)N/N=C\c3ccc(Br)cc3)c2)n1  1.49%
42. CCCC1CC(CSc2ncn[nH]2)OC1=O (centres unmarked)  1.24%
43. Brc1cnc(N2CCOCC2)nc1N1CCCCC1  1.12%
44. CCC(C)C(NC(=O)C1CCC(C)CC1)C(=O)NC(CCSC)C(=O)OC (centres unmarked)  0.532%
45. CCOC(=O)N1CCN(C(=O)C2CCN(S(=O)(=O)c3c(C)cc(C)cc3C)CC2)CC1  0.358%
46. OCC[C@H]1C[C@@H](O)[C@H](O)[C@]2(OCc3ccccc32)O1  -0.74%
47. Cc1cc(NC(=O)CSCc2ccc([N+](=O)[O-])cc2)no1  -0.908%
48. CCOCCCNC(=O)CCn1nc(-c2ccc(Cl)cc2)ccc1=O  -1.75%
49. COc1cccc(NC(=O)CN(C)C(=O)CC(NC(=O)c2ccccc2Cl)c2ccccc2)c1 (centres unmarked)  -3.1%
50. COCc1nnc(NC(=O)CCCOc2ccccc2)s1  -6.25%
51. CCn1c(CCNC(=O)c2ccc(F)cc2)nc2ccccc21  -7.21%
52. O=S(=O)(c1ccc2c(c1)OCCO2)N1CCC(n2cnc3cc(F)ccc32)CC1  -7.8%
53. CCCCn1c(N)c(N(CCOC)C(=O)c2cc(-c3ccccc3Cl)nc3ccccc23)c(=O)[nH]c1=O  -12.9%
54. COc1ccc(-c2[nH]ncc2CN2CCCOc3c(cccc3OC)C2)c(OC)c1  -14.3%
55. CCn1c(CN2CCN(C(c3ccccc3)c3ccccc3)CC2)nc2c1c(=O)n(C)c(=O)n2C  -17.7%
56. CCN(CC(=O)NCc1ccc(Cl)cc1)C(=O)CCC(=O)c1ccc(F)cc1  -52.2%

Reference: paper PMC4336329 (PLoS ONE, 2015)
